# Data taken from patent US20240270843A1, “TREM2 AGONIST BIOMARKERS AND METHODS OF USE THEREOF” (Vigil Neuroscience, Inc., priority 2021, published 2024).
# B1: Ab-1: anti-hTREM2 agonist antibody; light chain SEQ ID NO: 13, heavy chain SEQ ID NO: 16 (antibody)
# heavy: EVQLVQSGAEVKKPGESLKISCKGSGYSFTSYWIGWVRQMPGKGLEWMGIIYPGDADARYSPSFQGQVTISADKSISTAYLQWSSLKASDTAMYFCARRRQGIFGDALDFWGQGTLVTVSSASTKGPSVFPLAPSSKSTSGGTAALGCLVKDYFPEPVTVSWNSGALTSGVHTFPAVLQSSGLYSLSSVVTVPSSSLGTQTYICNVNHKPSNTKVDKKV[not shown - human IgG1 Fc with R292C N297G V302C (EU numbers)]
# light: EIVMTQSPATLSVSPGERATLSCRASQSVSSNLAWFQQKPGQAPRLLIYGASTRATGIPARFSGSGSGTEFTLTISSLQPEDFAVYYCLQDNNFPPTFGQGTKVDIKRTVAAPSVFIFPPSDEQLKSGTASVVCLLNNFYPREAKVQWKVDNALQSGNSQESVTEQDSKDSTYSLSSTLTLSKADYEKHKVYACEVTHQGLSSPVTKSFNRGEC
# Experiments:
# [1] = test system: TREM2; experiment: Exposure response of CSF sCSF1R, IP-10 and MCP-1 to Ab-1 in Cynomolgus monkeys (Simoa-based immunoassay); assay type: in vivo; conditions: single IV or IT dose
# Experimental: (§1) Ab-1, a TREM2 agonist targeting microglia in the brain, was administered either intravenously (IV) or intrathecally (IT) in a single dose to Cynomolgus monkeys. Free Ab-1, chemokine, and soluble Colony-Stimulating Factor 1 Receptor (sCSF1R) analysis in CSF samples was conducted.
# (§2) The test article was administered once on Day 1 via IV injection (Groups 1 to 3) or IT administration (Groups 4 and 5). The dose levels were 2, 20 and 200 mg/kg via IV injection at a dose volume of 2.0 and 2.5 mL/kg or 0.2 and 2 mg/animal via IT administration at a dose volume of 1.5 mL. Individual doses were based on the most recent body weights for IV administration. Each group consisted of four subjects, two male and two female. Table 8 outlines the overall experimental design and dosage levels.
# (§3) CSF samples (0.25 mL) were collected from all animals via the IT port for Chemokine and sCSF1R analyses. A target volume of CSF (0.25 mL) was collected at time points Day −2, 4 hrs, 12 hrs, 24 hrs, 32 hrs, 48 hrs, 72 hrs, 96 hrs and 168 hrs. The port was positive pressure locked with aCSF or sterile PBS post collection. CSF samples were collected and placed on wet ice. All aliquots were stored frozen at −60° C. to −90° C.
# CSF samples were measured for free Ab-1, sCSF1R, IP-10, and MCP-1 concentrations as a function of time. sCSF1R, IP-10, and MCP-1 concentrations were determined using a Simoa-based immunoassay protocol. The concentration of sCSF1R, IP-10, and MCP-1 were plotted versus time. The change-from-baseline (CFB) concentration of sCSF1R was also plotted against free Ab-1 concentration. The change-from-baseline (CFB) concentration of sCSF1R plotted vs. the concentration of Ab-1 is shown in FIG. 3, as a combination of all data points, and in FIG. 4, where the data is broken up by time point, post-dose.
# [2] = Single IV or IT dose of Ab-1 in Cynomolgus monkeys: tolerability and CSF penetration; assay type: in vivo; conditions: single IV 2, 20, 200 mg/kg; single IT 0.2 or 2 mg/animal
# Experimental: as §1, §2, §3
molecule,measurement,setting,value
B1,Exposure-response between IP-10 and free Ab-1 in CSF,[1],No significant exposure-response
same,Exposure-response between MCP-1 and free Ab-1 in CSF,[1],No significant exposure-response
same,Exposure-response of sCSF1R change-from-baseline vs Ab-1 concentration in CSF,[1]; by post-dose time point,most pronounced at earlier timepoints (<24 hours) with a flat exposure response at later timepoints
same,CSF penetration,[2],penetrate the CSF to a reasonable degree
same,Tolerability,[2],well tolerated
